In PubChem BioAssay AID1346428 (National Center for Advancing Translational Sciences (NCATS), 2018):
Where “and” joins values, the source holds several entries; their conditions need not be identical. Identical values can stand only once. The whole screen tested about 48,000 compounds, of which about 1,200 (2.5%) were called active. Roughly 2% stayed inconclusive and do not appear here.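 Rule for the calls: active = activation of at least 60% and not above a set upper limit (about 1 call in 100 departs from these limits); inconclusive = activation of 40% to 60%, or above that upper limit; inactive = activation under 40%.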 The list shows a part of the results.

Target: Probable G-protein coupled receptor 32 (Homo sapiens) (UniProt O75388)
Sequence of UniProt O75388 (O75388 whole entry, looked up): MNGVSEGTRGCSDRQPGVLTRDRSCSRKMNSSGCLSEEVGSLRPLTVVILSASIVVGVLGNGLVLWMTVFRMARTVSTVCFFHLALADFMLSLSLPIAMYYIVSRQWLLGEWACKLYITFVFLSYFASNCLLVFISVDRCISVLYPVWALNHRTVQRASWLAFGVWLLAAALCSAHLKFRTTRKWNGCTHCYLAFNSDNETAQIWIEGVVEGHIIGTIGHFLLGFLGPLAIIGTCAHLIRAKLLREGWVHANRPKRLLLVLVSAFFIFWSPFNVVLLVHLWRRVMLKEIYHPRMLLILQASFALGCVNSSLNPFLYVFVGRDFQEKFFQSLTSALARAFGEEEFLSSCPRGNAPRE
Assay: qHTS for Agonists of Human Resolvin D1 Receptor DRV1; note: 0% is about no effect
Conditions: CHO-K1 GPR32 beta-arrestin PathHunter luminescence, 90 min; at 76.9 µM; active compounds read high; zero percent set by DMSO-only wells
How it was run: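 GPR32 activation in stably transfected CHO-K1 cells, detected as beta-arrestin recruitment by enzyme-fragment complementation. Compound exposure: 90 min, 37 °C.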

Row | SMILES | activation
1 | COc1ccc(-c2nn(-c3cccc(F)c3)c3c2cnc2cc(OC)c(OC)cc23)cc1 | inactive: 0.86%
2 | O=C(CCCCn1c(=O)c2ccccc2n(CC(=O)Nc2cccc(F)c2)c1=O)NCCc1ccccc1 | inactive: 22.3%
3 | COc1ccc2[nH]cc(S(=O)(=O)c3ccc(C)c(C)c3)c(=O)c2c1 | inactive: -4.04%
4 | CCc1ccc(NC(=O)Cn2cc(S(=O)(=O)N3CCCC3)c(S(=O)(=O)N3CCCC3)c2)cc1 | inactive: -19.6%
5 | Cc1ccc(NC(=O)Cn2nnc(C(=O)NCc3ccc4c(c3)OCO4)c2N)cc1Cl | inactive: 2.48%
6 | COc1ccc2oc(=O)c(-c3nc(-c4cccs4)no3)cc2c1 | inactive: -5.79%
7 | CC(C)NC(=O)CCN1C(=O)c2ccccc2Sc2ncccc21 | inactive: -6.67%
8 | O=C(NC1CC(=O)N(c2ccc(F)cc2)C1)C1CC1 (stereo not given) | inactive: 8.75%
9 | CSc1nc2sc3c(c2c(=O)n1-c1ccccc1)CCC(C(C)(C)C)C3 (stereo not given) | inactive: 18.7%
10 | Cc1cc(C)cc(NC(=O)CCCc2nc(-c3ccccc3Cl)no2)c1 | inactive: -1.76%
11 | CC(=O)c1ccc(OCC(=O)N2CCCCC2)cc1 | inactive: -16.2%
12 | Cc1cc(C(=O)Nc2c(C)nc3ccccn3c2=O)ccc1[N+](=O)[O-] | inactive: -10.3%
13 | O=C(CSc1nc2c([nH]c3ccccc32)c(=O)n1-c1ccc(Cl)cc1)NCC1CCCO1 (stereo not given) | inactive: -21.5%
14 | CCOc1ccc(/C=C/c2nc(C#N)c(NCCc3ccccc3)o2)cc1 | inactive: -17.6%
15 | Cc1ccccc1Nc1c(-c2cccs2)nc2cccc(C)n12 | inactive: 12.5%
16 | CC1Cc2cc(S(=O)(=O)N(Cc3ccccc3)C(C)C)ccc2N1C(=O)C1CCC1 (stereo not given) | inactive: -7.59%
17 | COc1ccccc1NC(=O)Cn1c(=O)n(CCCCCC(=O)NCc2ccccc2)c(=O)c2sccc21 | inactive: 18.5%
18 | COC(=O)C(c1ccccc1Cl)N1CCc2sccc2C1 (stereo not given) | inactive: -19.2%
19 | CCOC(=O)c1c(C)oc2nc(C)nc(NCc3ccccc3OC)c12 | inactive: -10.3%
20 | CC(=O)Nc1ccc(S(=O)(=O)NC2(C(F)(F)F)NC(=O)N(CCc3ccc(F)cc3)C2=O)cc1 (stereo not given) | inactive: -8.28%
21 | COc1cccc(C(=O)Nc2ccccc2-c2nnc(-c3cccc(OC)c3)o2)c1 | inactive: -0.29%
22 | O=C(Cn1c(=O)oc2cc(S(=O)(=O)NCc3ccccc3)ccc21)NCc1ccc(Cl)cc1 | inactive: 18.7%

Row | SMILES | activation
23 | CCOc1cc(CNC(=O)Cn2c(-c3cccs3)cc3cc(F)ccc32)ccc1OC | inactive: -7.77%
24 | Cc1ccc(-n2c(SCC(N)=O)nc3c(oc4ccccc43)c2=O)cc1C | inactive: -6.72%
25 | COC(=O)C1=C(c2ccccc2)c2ccccc2S(=O)(=O)N1CC(=O)Nc1ccccc1Cl | inactive: -3.44%
26 | Cc1ccc(C)c(N2CCN(Cc3csc(C)c3)CC2)c1 | inactive: -23.8%
27 | Cc1ccc(C)c(NC(=O)Cn2c(=O)n(Cc3ccccc3)c(=O)c3oc4ccccc4c32)c1 | inactive: -9.7%
28 | Nc1ccc(S(=O)(=O)Nc2ccnn2-c2ccccc2)cc1 | inactive: 5.49% and inactive: -4.48%
29 | CCOCCCn1c(=N)c(C(=O)NCC2CCCO2)cc2c(=O)n3cccc(C)c3nc21 (stereo not given) | inactive: 18.1%
30 | O=C(c1cccs1)N1CCCc2cc(NS(=O)(=O)c3ccc(F)cc3F)ccc21 | inactive: -15.2%
31 | CCN(C)C(=O)Oc1cccc([C@H](C)N(C)C)c1 | inactive: 17.8%
32 | CCCN(CCC)CCCNC(=O)Cn1cnc2sc(C)c(S(=O)(=O)N3CCC(C)CC3)c2c1=O | inactive: 3.17%
33 | O=C(Nc1cccc(F)c1)c1ccc(-c2ccccc2)s1 | active: 68.3%
34 | Cc1cccc(NS(=O)(=O)c2ccc3c(c2)CCN3C(=O)C2CCC2)c1 | inactive: -0.107%
35 | COC(=O)C1CCN(S(=O)(=O)c2cc3c4c(c2)CC(=O)N4CCC3)CC1 | inactive: -21.8%
36 | COc1ccc2c(c1)NC(c1cccnc1)=NC(c1ccc(F)cc1)=N2 | inactive: 7.51%
37 | Cc1ccc(S(=O)(=O)c2cn(Cc3ccccc3Cl)c3ccc(F)cc3c2=O)cc1 | inactive: -8.32%
38 | COc1ccc(Br)cc1CNC(=O)c1ccc2c(c1)N(Cc1ccc(C)cc1)CCS2 | inactive: -18.3%
39 | Cc1ccc(CN2C(=O)c3ccccc3Sc3ccc(C(=O)OCc4ccco4)cc32)cc1 | inactive: -20.2%
40 | CCc1cccc(Nc2ncnc3onc(-c4ccc(F)cc4)c23)c1 | inactive: -2.78%
41 | COC(=O)c1c(C)nn(-c2ccc(F)cc2)c1-n1cccc1 | inactive: -24.2%
42 | Cc1ccc(NC(=O)CSc2nc(-c3ccccc3Cl)nc3cc(=O)[nH]n23)c(C)c1 | inactive: 0.591%
43 | Cc1ccc(C(c2sc3nc(-c4ccco4)nn3c2O)N2CCC3(CC2)OCCO3)cc1 (stereo not given) | inactive: 8.02%
44 | COc1ccc(OC)c(C2NC(=O)NC(C)=C2C(=O)Nc2ccc(F)cc2)c1 (stereo not given) | inactive: -6.24%

Row | SMILES | activation
45 | COc1cccc(N2CCN(S(=O)(=O)c3ccc(-c4ccno4)cc3OC)CC2)c1 | inactive: -0.323%
46 | O=C(CSc1cn(CC(=O)N2CCCCC2)c2ccccc12)Nc1ccc(C(F)(F)F)cc1 | inactive: -2.78%
47 | O=C(CSc1nc(-c2ccc(F)cc2)cc(C(F)(F)F)n1)NCCc1ccccc1 | inactive: 3.63%
48 | O=C(NCC(O)CO)c1c(I)c(C(=O)NCC(O)CO)c(I)c(N(CCO)C(=O)CO)c1I (stereo not given) | inactive: 14%
49 | COc1ccc(NC(=O)c2ccco2)cc1NC(=O)COc1ccc(Cl)cc1C | inactive: -4.99%
50 | COc1cccc(N2CCN(C(=O)c3ccc(NC(=O)c4nsc5ccccc45)cc3)CC2)c1 | inactive: -15.9%
51 | CCN(CC)CCNC(=O)c1sc2ncccc2c1-n1cccc1 | inactive: -11.3%
52 | Cc1ccc(C(=O)NCc2ccc(F)cc2)cc1NC(=O)c1nsc2ccccc12 | inactive: -22.2%
53 | Cc1cc(C)cc(-n2c(SCC(=O)Nc3ccc4c(c3)OCCO4)nc3c([nH]c4ccccc43)c2=O)c1 | inactive: -12.9%
54 | Cn1cc(S(=O)(=O)c2ccccc2)c(=O)c2cc(F)c(N3CCCCCC3)cc21 | inactive: 1.29%
55 | CC1=C(c2ccc(C)c(C)c2)S(=O)(=O)N=C1N1CCC(C(=O)NC(C)Cc2ccco2)CC1 (stereo not given) | inactive: -4.83%
56 | Cn1c(=O)n(C)c2cc(N3CCCCC3)c(NC(=O)c3ccc(C(C)(C)C)cc3)cc21 | inactive: 5.76%
57 | COc1ccc(CNC(=O)CCc2nc(-c3ccc(C)cc3)no2)c(OC)c1 | inactive: -18.7%
58 | O=C(Nc1ccc2nc(SCC(=O)N3CCc4ccccc43)sc2c1)c1ccccc1F | inactive: 4.79%
59 | COc1cc(C(=O)Nc2nonc2-c2ccc(C)c(C)c2)cc(OC)c1OC | inactive: 6.34%
60 | COc1ccc(C)cc1-n1cnc2cc(C(=O)NC3CCCC3)ccc21 | inactive: -4.89%
61 | Cc1ccc(NC(=O)c2ccc(NC(=O)N3CCSc4ncccc43)cc2)c(C)c1 | inactive: 4.39%
62 | CCC(=O)c1c(O)cc(O)cc1O | inactive: -4.7%
63 | CCOc1ccccc1NC(=O)Cn1c2ncccc2c(=O)n1-c1ccc(C)c(C)c1 | inactive: -12.5%
64 | CCc1ccc2nc(N3CCN(C(=O)C4CC4)CC3)sc2c1 | inactive: -2.87%
65 | Cn1nnnc1SCCCNCc1cccc(OCc2ccccc2Cl)c1 | inactive: -2.18%
66 | COc1ccc(C)cc1NC(=O)CSc1nc(=O)n(Cc2ccccn2)c2c1CCC2 | inactive: -5.22%

Row | SMILES | activation
67 | CCN1C(=O)C(Cc2nc3ccccc3c(=O)n2-c2ccccc2)c2cc(Br)ccc21 (stereo not given) | inactive: -0.603%
68 | Cc1oc(-c2ccc(C(=O)Nc3ccccc3F)cc2)nc1COc1ccccc1 | inactive: -2.69%
69 | CCOc1ccc(NC(=O)CN2C(=O)C3(SCC(=O)N3c3ccc(F)cc3)c3ccccc32)cc1 (stereo not given) | inactive: -9.04%
70 | Cc1cccc(C)c1NC(=O)CN1C(=O)c2cccc3cccc1c23 | inactive: -7.39%
71 | COc1ccc(C2C(=O)N(C3CCC(C)CC3)CC(=O)N2CCC2=CCCCC2)cc1OC (stereo not given) | inactive: -17.1%
72 | Cc1oc2c(c(C)cc3oc(=O)c(CC(=O)NCc4ccc(F)cc4)c(C)c32)c1C | inactive: -12.6%
73 | CC(=O)N1CCCc2cc(S(=O)(=O)Nc3ccc(C)c(F)c3)ccc21 | inactive: -6.36%
74 | COc1ccc(CNc2oc(-c3ccc(COc4ccc(OC)cc4)o3)nc2C#N)cc1 | inactive: -25.7%
75 | CCOC(=O)c1ccc(NS(=O)(=O)c2ccc3[nH]c4c(c3c2)CCCCC4)cc1 | inactive: 10.3%
76 | Cc1cccc(NC(=O)Cn2c(=O)oc3cc(S(=O)(=O)NC4CCCC4)ccc32)c1 | inactive: 15.9%
77 | CCc1nn(CC(=O)N2CCN(c3cccc(C(F)(F)F)c3)CC2)c(=O)c2cccn12 | inactive: -8.59%
78 | CC(=O)N1CCc2cc(S(=O)(=O)NC(Cc3ccccc3)C(=O)Nc3ccc(Cl)cc3)ccc21 (stereo not given) | active: 95.8%
79 | Cc1cc(C)c(OCC(=O)N(Cc2cccc(F)c2)Cc2ccco2)c(C)c1 | inactive: -23.9%
80 | Cc1ccc(C)c(CN2C(=O)c3ccccc3S(=O)(=O)c3ccc(C(=O)NCc4ccccc4)cc32)c1 | inactive: -22.1%
81 | Cc1cccc(OCCSc2nc3ccc(NC(=O)COc4ccccc4)cc3s2)c1 | inactive: -3.57%
82 | Cc1cccc(OCCCn2c(CCNC(=O)C(C)(C)C)nc3ccccc32)c1 | inactive: 14.8%
83 | CCCN1CCc2nc(N3CCN(c4ncccn4)CC3)ncc2C1 | inactive: -20.9%
84 | CCOc1ccc(C(=O)Nc2ccc3oc(-c4cccnc4)nc3c2)cc1 | inactive: 15.7%
85 | COc1ccc(S(=O)(=O)Nc2cc3c(cc2NCc2ccccc2)n(C)c(=O)n3C)cc1 | inactive: 31.7%
